According to the supplement of paper PMC4967469:
Lines with a small IC50 respond at low doses; a limit (>, <) means that the fit lies beyond the doses tested. AUC is the area under the same curve over the 256-fold range up to the top dose, as a fraction: 1 means no effect, lower means more sensitive. An inferred top dose was calculated from the reported fits. For part of these data: Where an entry number is given, a second screen of the drug exists; the two often differ.

How the values were obtained:
Assay in all cases: Viability of human cancer cell lines after 72 h of drug (GDSC screen)
[1] = compound: CC(C)=CC[C@@H](O)C1=CC(=O)c2c(O)ccc(O)c2C1=O [Shikonin]; settings: top dose 16 µM; top dose inferred
Description: (§1)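 Human cancer cell lines in 384-well plates, medium with 10% serum, drug for 72 h over a 256-fold dose range (nine 2-fold or five 4-fold steps up to the top dose). Adherent lines were fixed and stained with the nucleic acid dye Syto60, suspension lines read with resazurin; signal relative to control wells, capped at 0 and 100%. One two-parameter sigmoid per drug and line, fitted in a mixed model over all curves with the slope shared within a line.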

[2] = compound: Cc1cc(N2CCOCC2)cc2[nH]c(-c3c(NC[C@@H](O)c4cccc(Cl)c4)cc[nH]c3=O)nc12 [BMS-536924]; settings: top dose 4 µM; screen: GDSC drug entry 1091; top dose inferred
Description: as §1

[3] = compound: Cc1cccc(-c2[nH]c(C(C)(C)C)nc2-c2ccc3nccnc3c2)n1 [SB-525334]; settings: top dose 20 µM; top dose inferred
Description: as §1

[4] = compound: O=C(c1cc(Cc2n[nH]c(=O)c3ccccc23)ccc1F)N1CCN(C(=O)C2CC2)CC1 [Olaparib]
Description: as §1

[5] = compound: NC(=O)c1ccc(N(C(N)=O)c2c(F)cccc2F)nc1-c1ccc(F)cc1F [VX-702]; settings: top dose 2 µM; top dose inferred
Description: as §1

[6] = top dose 10 µM, screen: GDSC drug entry 1495
[7] = top dose 5 µM, screen: GDSC drug entry 1017, top dose inferred

Cell Line	AUC [1]	IC50 [1]	AUC [2]	IC50 [2]	AUC [3]	IC50 [3]	AUC [4, 6]	IC50 [4, 6]	AUC [5]	IC50 [5]	AUC [4, 7]	IC50 [4, 7]
769-P (kidney, adherent)	0.429	0.626 µM	0.981	> 4 µM	0.872	> 20 µM	0.854	9.01 µM	–	–	–	–
A204 (rhabdomyosarcoma, adherent)	0.235	0.132 µM	0.896	> 4 µM	0.892	> 20 µM	0.794	6.21 µM	–	–	–	–
ACHN (kidney, adherent)	0.313	0.276 µM	0.904	> 4 µM	0.941	> 20 µM	0.941	> 10 µM	0.976	> 2 µM	0.96	> 5 µM
AN3-CA (endometrium, adherent)	0.295	0.25 µM	0.856	3.7 µM	0.95	> 20 µM	0.889	> 10 µM	0.984	> 2 µM	0.948	> 5 µM
BEN (non-small cell lung carcinoma, adherent)	0.528	1.21 µM	0.969	> 4 µM	0.932	> 20 µM	0.982	> 10 µM	–	–	–	–
BFTC-909 (kidney, adherent)	0.55	1.37 µM	0.978	> 4 µM	0.988	> 20 µM	0.867	8.66 µM	–	–	–	–
BICR31 (head and neck, adherent)	0.288	0.25 µM	–	–	0.985	> 20 µM	–	–	–	–	–	–
CAKI-1 (kidney, adherent)	0.445	0.657 µM	0.92	> 4 µM	0.935	> 20 µM	0.922	> 10 µM	0.948	> 2 µM	0.889	> 5 µM
CAMA-1 (breast, adherent)	0.563	1.55 µM	0.962	> 4 µM	0.932	> 20 µM	0.942	> 10 µM	–	–	–	–
COLO-792 (melanoma, adherent)	0.876	15.5 µM	0.885	> 4 µM	0.98	> 20 µM	0.986	> 10 µM	–	–	–	–
COR-L32 (small cell lung carcinoma, suspension)	–	–	0.677	1.33 µM	–	–	0.957	> 10 µM	–	–	–	–
COR-L105 (lung adenocarcinoma, adherent)	0.324	0.286 µM	0.884	> 4 µM	0.641	3.35 µM	0.91	> 10 µM	–	–	–	–
COR-L303 (small cell lung carcinoma, suspension)	–	–	–	–	0.904	> 20 µM	–	–	–	–	–	–
COR-L311 (small cell lung carcinoma, suspension)	–	–	–	–	0.97	> 20 µM	–	–	–	–	–	–
Caov-3 (ovary, adherent)	0.492	0.952 µM	–	–	0.911	> 20 µM	–	–	–	–	–	–
Daoy (medulloblastoma, adherent)	0.204	0.149 µM	0.986	> 4 µM	0.983	> 20 µM	0.777	3.63 µM	0.988	> 2 µM	0.985	> 5 µM
EFM-19 (breast, adherent)	0.349	0.307 µM	0.856	> 4 µM	0.793	15.1 µM	0.914	> 10 µM	0.966	> 2 µM	0.952	> 5 µM
GCT (soft tissue, adherent)	0.528	1.18 µM	0.988	> 4 µM	0.989	> 20 µM	0.674	1.84 µM	–	–	–	–
H2818 (mesothelioma, adherent)	0.698	3.68 µM	0.973	> 4 µM	0.989	> 20 µM	0.961	> 10 µM	–	–	–	–
HCC70 (breast, adherent)	0.603	1.91 µM	0.959	> 4 µM	0.904	> 20 µM	–	–	0.979	> 2 µM	–	–

Cell Line	AUC [1]	IC50 [1]	AUC [2]	IC50 [2]	AUC [3]	IC50 [3]	AUC [4, 6]	IC50 [4, 6]	AUC [5]	IC50 [5]	AUC [4, 7]	IC50 [4, 7]
HMV-II (melanoma, adherent)	0.168	0.0737 µM	0.889	> 4 µM	0.853	> 20 µM	0.963	> 10 µM	0.974	> 2 µM	0.974	> 5 µM
HO-1-N-1 (head and neck, adherent)	0.353	0.406 µM	0.926	> 4 µM	0.983	> 20 µM	0.903	> 10 µM	–	–	–	–
HOP-92 (large cell lung carcinoma, adherent)	0.534	1.25 µM	0.926	> 4 µM	0.979	> 20 µM	0.942	> 10 µM	0.981	> 2 µM	0.983	> 5 µM
HPAC (pancreas, adherent)	0.516	1.12 µM	0.901	> 4 µM	0.965	> 20 µM	–	–	–	–	–	–
HPAF-II (pancreas, adherent)	0.525	1.19 µM	0.743	1.58 µM	0.866	> 20 µM	0.867	> 10 µM	–	–	–	–
HSC-3 (head and neck, adherent)	0.322	0.347 µM	0.953	> 4 µM	0.99	> 20 µM	0.894	9.02 µM	–	–	–	–
HTC-C3 (thyroid, adherent)	0.409	–	0.883	> 4 µM	0.818	13 µM	0.914	> 10 µM	–	–	–	–
J82 (bladder, adherent)	0.249	0.19 µM	0.951	> 4 µM	0.988	> 20 µM	0.934	> 10 µM	–	–	–	–
JHH-6 (liver, adherent)	0.658	2.77 µM	0.964	> 4 µM	0.962	> 20 µM	0.894	> 10 µM	0.985	> 2 µM	0.982	> 5 µM
KOSC-2 (head and neck, adherent)	0.575	1.62 µM	0.922	> 4 µM	0.984	> 20 µM	0.863	9.25 µM	–	–	–	–
KP-4 (pancreas, adherent)	0.33	0.343 µM	0.987	> 4 µM	0.972	> 20 µM	0.937	> 10 µM	–	–	–	–
KYSE-70 (oesophagus, adherent)	0.559	1.47 µM	–	–	0.983	> 20 µM	0.971	> 10 µM	0.985	> 2 µM	0.96	> 5 µM
KYSE-180 (oesophagus, adherent)	0.492	0.952 µM	0.916	> 4 µM	0.889	> 20 µM	0.932	> 10 µM	–	–	–	–
KYSE-270 (oesophagus, adherent)	0.251	0.221 µM	0.896	3.64 µM	0.979	> 20 µM	0.804	4.16 µM	–	–	–	–
LU-99A (large cell lung carcinoma, adherent)	0.589	1.75 µM	0.868	3.57 µM	0.97	> 20 µM	0.835	6.49 µM	–	–	–	–
ML-1 (thyroid, adherent)	0.277	0.206 µM	0.907	> 4 µM	0.981	> 20 µM	0.952	> 10 µM	–	–	–	–
NCI-H1299 (large cell lung carcinoma, adherent)	0.507	1.05 µM	0.954	> 4 µM	0.953	> 20 µM	0.949	> 10 µM	–	–	–	–
NCI-H1573 (lung adenocarcinoma, adherent)	0.957	> 16 µM	0.904	> 4 µM	0.937	> 20 µM	0.988	> 10 µM	–	–	–	–
NCI-H1650 (lung adenocarcinoma, adherent)	–	–	0.883	> 4 µM	–	–	–	–	–	–	–	–
NCI-H1734 (lung adenocarcinoma, adherent)	0.64	2.54 µM	–	–	0.9	> 20 µM	–	–	0.984	> 2 µM	0.935	> 5 µM

Cell Line	AUC [1]	IC50 [1]	AUC [2]	IC50 [2]	AUC [3]	IC50 [3]	AUC [4, 6]	IC50 [4, 6]	AUC [5]	IC50 [5]	AUC [4, 7]	IC50 [4, 7]
NCI-H1793 (lung adenocarcinoma, adherent)	0.863	> 16 µM	0.889	> 4 µM	0.977	> 20 µM	0.971	> 10 µM	–	–	–	–
NCI-H2170 (lung squamous cell carcinoma, adherent)	0.586	1.74 µM	0.919	> 4 µM	0.971	> 20 µM	0.975	> 10 µM	–	–	–	–
NCI-H2228 (lung adenocarcinoma, adherent)	0.531	1.27 µM	0.74	1.78 µM	0.963	> 20 µM	–	–	–	–	–	–
PCI-38 (head and neck, adherent)	0.78	6.63 µM	0.839	2.75 µM	0.921	> 20 µM	0.969	> 10 µM	–	–	–	–
PL18 (pancreas, adherent)	0.516	1.1 µM	0.976	> 4 µM	0.988	> 20 µM	0.906	> 10 µM	–	–	–	–
RD (rhabdomyosarcoma, adherent)	0.319	0.296 µM	0.835	2.97 µM	0.952	> 20 µM	0.928	> 10 µM	–	–	–	–
RT-112 (bladder, adherent)	0.3	0.261 µM	0.723	1.13 µM	0.831	14 µM	0.977	> 10 µM	–	–	–	–
SN12C (kidney, adherent)	0.651	2.76 µM	0.957	> 4 µM	0.963	> 20 µM	0.92	> 10 µM	–	–	–	–
SNU-175 (large intestine, suspension)	–	–	–	–	0.937	> 20 µM	–	–	–	–	–	–
SNU-398 (liver, adherent)	0.205	0.128 µM	0.926	> 4 µM	0.833	13.6 µM	0.957	> 10 µM	–	–	–	–
SNU-475 (liver, adherent)	0.844	9.52 µM	–	–	0.973	> 20 µM	–	–	–	–	–	–
SNU-1040 (large intestine, adherent)	–	–	0.977	> 4 µM	0.941	> 20 µM	0.972	> 10 µM	–	–	–	–
SW156 (kidney, adherent)	0.618	2.2 µM	0.979	> 4 µM	0.961	> 20 µM	0.977	> 10 µM	–	–	–	–
SW837 (large intestine, adherent)	0.716	5.06 µM	0.908	> 4 µM	0.934	> 20 µM	0.959	> 10 µM	–	–	–	–
SW1088 (glioma, adherent)	0.453	0.716 µM	0.885	> 4 µM	0.973	> 20 µM	0.957	> 10 µM	–	–	–	–
SW1116 (large intestine, adherent)	–	–	0.916	> 4 µM	0.982	> 20 µM	0.979	> 10 µM	–	–	–	–
SW1463 (large intestine, adherent)	0.594	2.18 µM	0.941	> 4 µM	0.964	> 20 µM	0.967	> 10 µM	–	–	–	–
U251 (glioma, adherent)	0.504	1.03 µM	0.982	> 4 µM	0.721	5.11 µM	–	–	0.986	> 2 µM	–	–
VMRC-RCW (kidney, adherent)	0.412	0.584 µM	–	–	0.984	> 20 µM	–	–	0.967	> 2 µM	0.981	> 5 µM
YMB-1-E (breast, adherent)	–	–	–	–	0.936	> 20 µM	–	–	–	–	–	–
